Results taken from the RNAGym collection of RNA variant scans (doi:10.7554/elife.90254).
Read counts are not given, so values of variants with three or more changes are uncertain.

B1: OR4K15 (parent)
chain: GUUAACGGUCAUAGGCCAUGGAAACUAGGAGCACCAUUUCGCUGCCAGUGAAGAAAUGAACAAAGAAAAUCUGGGCCAGGCAGGCAUCAAAAGAAAUAGUCUUGCGCUCAACCAGAAAGUCUGUAAUCAUUUUAAGGGUA

Variants of: B1
Assay: self-cleavage, relative activity (ratio to wild type); higher = more cleavage; in vitro, sequencing; the parent is a self-cleaving ribozyme

Row | Variant | self-cleavage
1 | GUUAGCGGUCAUAGGCCAUGGAAACCAGGAGCACCAUUUCGCUGCCAGUGAAUAAAUGAACAAAGAGAAUCUGGGCCAGGCGGGCAUCAAAAGAAAUAGUCUUGCGCUCAACCAGAAAGUCUGUAAUCAUUUUAAGGGUA | 0.8
2 | GUUAGCGGUCACAGGCCAUGGAAACUAGGAGCACCAUUUCGCUGCCAGUGAAGAAAUGAACAAAGAAAAACUGGGCCAGGCAGACAACAAGAGAAAUAGUCUUGCGCUCAACCAGAAAGUCUGUAAUCAUUUUAAGGGUA | 1.16
3 | GUUAGCGGUCAUAGGCCAUUGAAACUAGGAGCACCAUUUCGCUGCCAGUGAAGAAAUGAACAAAGAAAAUCUGGGCCAGGCAGGCAUCAAAAGAAAUAGUCUUGCGCUCAACCAGAAAGACUGUAAUCACUUUAAGGGUA | 1.62
4 | GUUAGCGGUCAUAGGCCAUGGAAACUAGGAACACCAUUUCGCUGCCAGUGAAGAAAUGAACAAAGAAAAUCUGGGCCUGGCAGGCAUCAAAAGAAAUAGUCUUGCGCUCAACCAGAAAGUCUGUAAUCAUUUUAAGGGUA | 0.27
5 | GUUAGCGGCCAUAGGCCAUGGAGACUAGGAGCACCAUUUCGCUGCCAGUGAAGAAAUGAACAAAGAAAGUCUGGGCCAGGCAGGCCUCAAAAGAAAUAGUCCUGCGCCCAACCAGAAAGUCUGUAAUCAUUGUAAGGGUA | 0.01
6 | GUUAGCGGUCAUAGGCCACGGAAACUAGGAGCACCAUUUCGCUGCCAGUGAAGAAAUGAACAAAGAAAAUCUGGGCCAGGCAGGCAUCAAAUGAAAUAGCCUUGCGCUCAACCAGAAAGUCUGUAAUCAUUUUAAGGGUG | 2.78
7 | GUUAGCGGUCAUAGGCCAUGGAAACUAGGAGCACCAUCUCGCUGCCAGUGAAGAAAUGAACGAAGAAAAUCUGGGCCAGGCAGGCAUCAAAAGAAAUAGUCAUGCGCUCAACCAGAAAGUCUGUAAUCAUUUUAAGGGUA | 0.65
8 | GUUAGCGGUCACAGGCCAUGGAAACUAGGAGCACCAUUUCGCUGCCAGUGAAGAAAUGGACAAAGAAAAUCUGGGCCAGGCAGGCAUCAAAAGAAAUAGUCUUGCGCUCAACCAGAAAGUCUGUAAUCAUUCUAAGGGUA | 0.98
9 | GUUAGCGGUCAUAGGCCAUGGAAACUAGGAGCACCAUUUCGCUGCCAGUGAAGAAAUGAACAAAGAAAAUCUGUGCUAGGCAGGCAUCAAAAGAAAUAGUCUUGCGCUCAACCAGAAAGUCUGUAAUCAUUUUAAGGGUA | 0.24
10 | GUUAGCGGUCAUAGGCCAUGGAAACUAGGAGCACCAUCUCGCUGCCAGUGAAGAAAUGAACAAUGAAAAUCUGGGCCAGGCAGGCAUCAAAAGAAGUAGUCUUGCGCCCAACCAGAAAGUCUGUAAUCAUUUUAAGGGUA | 0.04
11 | GUUAGCGGUCAUAGGCCAUGGAAACUAGGAGCACCAUUUCGCUGCCAGUGAAGAAAUGAACAAAGAAAAUCUGGGCCAGGCAAGCAUCAAAAGAAAUAGUCUUGCGCUCAGCCAGAAAGUCUGUAAUCAUUUUAAGGGUA | 0.05
12 | GUUAGCGGUCAUAGGCCAUGGAAACUAGGAGCACCAUCUCGCUGCCAGUGAAGAAAUGAGCAAAGAAAAUCUGGGCCAGGCAGGCAUCAAAAGAAAUAGUCUUGCGCUCAACCAGAAAGUCUGUAAUCAUUUUAAGGGUA | 0.7
13 | GUUAGCGGUCAUAGGCCACGGAAACUAGGAGCACCAUUUCGCUGCCAGUGAGGAAAUGAACAAAGAAAAUCUGGGCCAGGCAGGCAUCAAAAGAAAUAGUCUUGCGCUCAACCAGAAAGUCUGUAAUCAUUUUAAGGGUA | 0.98
14 | GUUAGCGGUCAUAAGCCAUGGAAACUAGGAGCACCAUUUCGCUGCCAGUGAAGGAAUGAACAAGGAAAAUCUGGGCCAGGCAGGCAUCAAAAGAAAUAGUCUUGCGCUCAACCAGAAAGUCUGUAAUCAUUUUAAGGGUA | 0.9
15 | GUUAGCGAUCAUAGGCCAUGGAAACUAGGAGCACCAUUUCGCUGCCAGUGAAGAAAUGUACAAAGAAAAUCUGAGCCAGGCAGGCAUCAAAAGAAAUAGUCUUGCGCUCAACCAGAAAGUCUGUAAUCAUUUUAAGGGUA | 0.35
16 | GUUAGCGGUCAUAGGCCAAGGAAACUAGGAGCACCAUUUCGCUACCAGUGAAGAAAUGAACAAAGAAAAUCUGGGCCAGGCAGGCAUCAAAAGAAAUAGUCUUGCGCUCAACCAGAAAGUCUGUAAUCAUUUUAAGGGUA | 1.36
17 | GUUAGCGGUCACAGGCCAUGGAAACUAGGAGCACCAUUUCGCUGCCAGUGAAGAAAUGAACAAAGAAAAUCUGGGCCAGGCAGGCAUCAAAAGAAAUAGUCUUGCGCUCAACCAGAAAGUCAGUAAUCAUUUUAAGGGUA | 0.92
18 | GUUAGCGGUCAAAGGCCAUGGAAACUAGGAGCACCAUUUCGCUGCCAGUGAAGAAAUGAGCAAAGAAAAUCUGGGCCAGGCAGGCAUCAAAAGAAAUAGUCUUGCGCUCAACCAGAAAGUCUGUAAUCAUUUUAAGGGUA | 1.25
19 | GUUAGCGGUCAUAGGCCAUAGAGACUAGGAGCACCAUUUCGCUGCCAGAGAAGAGAUGAACAAGGAAAAUCUGGACCAGGCAGGCAUCAAAAGAAAUAGUCUUGCGCCCAGCCAGAAAGUCUGUAAUCAUUUUAAGGGUA | 0.03
20 | GUUAGCGGUCAUAGGCCAUGGAAACUAGGAACACCAUUUCGCUGCCAGUGAAGAAAUGAACAAAGAAAAUCUGGGCCAGGCAGGCAUCAAAAGAAAUAGUCUUGCGCUCAACCAGAAAGUCCGUAAUCAUUUUAAGGGUA | 0.26
21 | GUUAGCGGUCACAGGCCAUGGAAACUAGGAGCACCAUUUCGCUGCCAGUGAAGAAAUGAACAGAGAAAAUCUGGGCCUGGCGGGCAUCAAAAGAAAUAGUCUUGCGCUCAACCAGAAAGUCUGUAAUCAUUUUAAGGGUA | 0.17

Row | Variant | self-cleavage
22 | GUUAGCGGUCAUAGGCCAUGGAAACCAGGAGCACCAUUUCGCUGCCAGUGAAGAAAUGAACAAAGAAAAUCAGGGCCAGGCAGGCAUCAAAAGAAAUAGUCUUGCGCUCAACCAGAAAGUCUGUAAUCGUUUUAAGGGUA | 0.11
23 | GUUAGCGGUCAUAGGCCAUGGAAACUAGGAGCACCAUCUCGCUGCCAGUGAAGAAAUGGACGAAGAAAAUCUGGGCCAGGCAGGCAACAAAAGAAAUAGUCUUGCGCUCAACCAGAAAGUCUGUAAUCAUUUUAAGGGUA | 0.76
24 | GUUAGCGGUCAUAGGCCAUGGAAACUAGGAGCACCAUCUCGCUGCCAGUGAAGAAAUGAACAAAGAAAAUCUGGGCCAGGCAGGCAUCAAAAGAAAUAGUCUUGCGCUCAACCAGAAAGUCUGUAAUCAUCUUAAGGGUA | 1
25 | GUUAGCGGUCAUAGGCCAUGGAAACUAGAAGCACCAUUUCGCUGCCAGUGAAGAAAUGAACAAAGAAAAUCUGGGCCAGGCAGGCAUCGAAAGAAAUAGACUUGCGCUCAACCAGAAAGUCUGUGAUCAUUUUAAGGGUA | 0.4
26 | GUUAGCGGACAUAGGCCAUGGAAACUAGGAGCACCAUUUCGCUGCCAGUGAAGAAAUGAACAAAGAAAAUCUGGGCCAGGCAGGCAUCAAAAGAAAUAGUCUUGCGCUCAACCAGAAAGCCUGUAAUCAUUUUAAGGGUA | 0.55
27 | GUUAGCGGUCAUAGGCCAUGGAAACUAGGAGCACCAUCUCGCUGCCAGUGAAGAAAUGAACGAAGAAAAUCUGGGCCAGGCAGGCAUCAAAAGAAAUAGUCUUGCGCUCAACCAGAAAGUCUGUAAUCAUUUUAAGGGUA | 0.77
28 | GUUAGCGGUCAUAGGCCACAGAAACUAGGAGCACCAUUUCGCUGCCAGUGAAGAAAUGAACAAAGAAAAUCUGGGCCGGGCAGGCAUCAAAAGAAAUAGUCUUGCGCUCAACCAGAAAGCCUGUAAUCAUUUUAAGGGUA | 0.28
29 | GUUAGCGGUCAUAAGCCAUGGAAACUAGGAGCACCAUUUCGCUGCCAGUGAAGAAAUGAACAAAGAAAAUCUGGGCCAGGCAGGCAUCAAAAGAAAUAGUCUUGCGCUCAACCAGAAGGUCUGUAAUCAUUUUAAGGGUA | 0.65
30 | GUUAGCGGUCAUAGGCCACGGAAACUAGGAGCGCCAUUUCGCUGCCAGUGAAGAAAUGAACAAAGAAAAUCUGGGCCAGGCAGGCAUCAAAAGAAAUAGUCUUGCCCUCAACCAGAAAGUCUGUAAUCAUUUUAAGGGUA | 0.04
31 | GUUAGCGGCCAUAGGCCGUGGAAACUAGGAGCACCAUUUCGCUGCCAGUGAAGAAAUGAACAAAGAAAAUCUGGGCCAGGCAGGCAUCAAAAGAAAUAGUCUUGCGCUCAACCAGCAAGUCUGUAAUCACUUUAAGGGUA | 0.14
32 | GUUAGCGGUCAUAGGCCAUAGAAACUAGGAGCACCAUUUCGCUGCCAGUGGAGAAAUGAACAAAGCAAAUCUGGGCCAGGCAGGCAUCAAAAGAAAUAGUCUUGCGCUCAACCAGAAAGUCUGUAAUCAUUUUAAGGGUA | 0.67
33 | GUUAGCGGUCAUAGCCCAUGGAAACUAGGAGCACCAUUUCGCUGCCAGUGAAGAAACGGACAGAGAAAAUCUGGGCCGGGCAGGCAUCAAAAGAAAUAGCCUCGCGCUCAACCAGAAAGUCUGUAAUCAUUUUAAGGGUA | 0.25
34 | GUUAGCGUUCAUAGGCCAUGGAAACUAGGAGCACCGUUUCGCUGCCAGUGAAGAAAUGAACAAAGAAAAUCUGGGCCAGGCAGGCAUCAAAAGAAAUAGUCUUGCGCUCAACCAGAAAGUCUGUAAUCAUUUUAAGGGUA | 1.65
35 | GUUAGCGGUCAUAGGCCAUGGAAACUAGGAGCACCAUUUCGCUGCCAGUGAAAAAAUGAACAAAGAAAAUCUGGGCCAGGCAGGCAUCAAAAGAAAUAGUCUCGCGCUCAACCAGAAAGUCUGUAAUCAUUCUAAGGAUA | 0.99
36 | GUUAGCGGCCAUAGGCCAUGGAAACUAGGAGCACCAUUUCGCUGCCAGUGAAGAAAUGAACAAGGAAAAUCUGGGCCAGGCAGGCAUCAAAAGAAAUAGUCUUGCGCUCAACCAGAAAGUCUGUAAUCAUUUUAAGAGUA | 1.18
37 | GUUAGCGGUCAUAGGCCACGGAAACUAGGAGCACCAUUUCGCUGCCAGUGAAGAAAGGAACAAAGAGAAUCUGGGCCAGGCAGGCAUCAAGAGAAAUAGUCUUGCGCUCAACCAGAAAGUCUGUAAUCAUUUUAAGGGUA | 0.71
38 | GUUAGCGGUCAUAGGCCAUAGAAACUAGGAGCACCAUUUCGCUGCCAGUGAAGAAAUGAACAAAGAAAAUCAGGGCCGGGCAGGCAUCAAAAGAAAUAGUCUUGCGCUCAACCAGAAAGUCUGUAAUCAUUUUAAGGGUA | 0.48
39 | GUUAGCGGUCAUAGACCAUGGAAACUAGGAGCACCAUUUCGCUGCCAGUGAAGAAAUGAACAAAGAAAACCUGGGCCAGGCAGGCAUCAAAAGAAAUAGUCUUGCGCUCAACCAGAAAGUCUGUAAUCAUCUUAAGGGUA | 0.12
40 | GUUAGCGGUCAUAGGCCAUGGAAACUAGGAGCACCACUUCGCUGCCAGUGAAGAAAUGAACAAAGAAAAUCUGGGCCAGGCAGGCAUCAAAAGAAAUAGUCUUGCGCUCAACCAGAAAGUCCGUAAUCAUUUUAAGGGUA | 1.32
41 | GUUAGCGGUCAUAGGCCAUGGAAACUAGGAGCACCAUCUCGCUGCCAGUGAAGAAAUGAACAAAGAAAAUCUGGGCCUGGCAGGCAUCAAAAGAAAUAGUCUUGCGCUCAACCAGAAAGUCUGUAAUCAUUUUAAGGGUA | 0.15
